Laboratory results published in the supplement of paper PMC10300432.
Recombinant human monoclonal antibodies (heavy:light variable regions). ELISA EC50 on the named antigen, from 10 µg/ml down; IC50 against spike pseudovirus on HT1080-ACE2 cells, 48 h; lower = stronger. Calls: IC50 above 1,000 ng/ml = non-neutralizing; EC50 above 1,000 ng/ml = non-binder.

B1: C5097 (protein)
chain 1: QVQLVESGGGVVQPGRSLRLSCAASGFTFSNYDMHWVRQAPGKGLEWVAVISYDGSNKYYADSVKGRFTISRDNSKNTLYLQMNSLRAEDTAVYYCAKVDMAYCGGDCYARALDYWGQGTLVTVSS
chain 2: SYELTQPPSVSVAPGKTARITCGGNNIGSKSVHWYQQKPGQAPVLVIYYDSDRPSGIPDRFSGSNSGNTATLTISRVEAGDEADYYCQVWNSSSDHYVFGTGTKVTVL
B2: C5109 (protein)
chain 1: QVQLQESGPGLVKPSETLSLTCSVSGHSISSGYFWAWIRQTPGKGLEWIGCISHSGTTHYNPSLRSRVTISLDTSKSQFFLDLTSVTAADTAVYYCARDPLGDYWGQGILVTVSS
chain 2: DIQMTQSPSSLSASVGDRVTITCRASQGISNSLAWYQQRPGTAPKLLLYAASTLESGVPSRFSGSGSGTDFTLTISSLQPEDFATYYCQQYYSPPPRTFGQGTKVEI
B3: C5117 (protein)
chain 1: EVQLLESGGGLVQPGGSLRLSCAASAFIFRNYGMGWVRQAPGKGLEWVSGISGSGESTFYADSGKGRFTITRDNSKNTLYLQMKSLRAEDTAVYYCAKALAASGYWAFDFWGQGTMVTVSS
chain 2: DIQMTQSPSSLSASVGDRVTITCQASQDISNYLNWYQQKPGKAPKLLIYDASNLETGVPSRFSGSGSGTDFTFTISSLQPEDIATYYCQQYDNLLITFGQGTRLEIK
B4: C5106 (protein)
chain 1: QVQLVESGGGVVQPGRSLRLSCAASGFTFRTYGMHWVRQAPGKGLEWVAVISYDGDNQYHADSVKGRFTISRDNSKNTLYLQMNSLRTEDTAVYYCAKNLGPYCSGGNCLSGYFDYWGQGTLVTVSS
chain 2: DIQMTQSPSSLSASVGDRVTITCQASQDISNFLIWYQQKPGNAPKVVIYDASNLEAGVPSRFSGSGSGTDFTFTISSLQPEDIATYYCQQYDNVPLTFGGGTKVEIK
B5: C5110 (protein)
chain 1: EVQLVQSGAEVKKPGESLKISCKGSGYMFNTNWIGWVRQMPGKGLEWMGIIYLGDSETTYSPSFQGQVTLSADKSINTAYLQWSSLKASDTAIYYCARHRPFAATIDGAFGYMDVWGKGTTVTVSS
chain 2: EIVLTQSPGTLSLSPGERATLSCRASESVDSSYLAWYGQKPGQAPRLLIYGASIRATGIPDRFSGSGSGTDFTLTISRLEPEDFAVYYCQQYGSSPPYTFGQGTKLEIK
B6: C5113 (protein)
chain 1: QVQLVQSGAEVKKPGSSVKISCKASGGTSNTYTVAWVRQAPGQGLEWMGRIIPMFQVPNYAQKFQGRITLTADKSTDTAYMELSSLRFEDTAVYYCATSPGINALDFQDWGQGTLVTVSS
chain 2: DVVMTQSPLSLPVTLGQPASISCRSSQGLVYSDGDTYLTWFQQRPGQSPRRLIYKVSNRDSGVPDRFSGSGSGTDFTLKISRVEAEDVGVYYCMQATHWPPTFGQGTKVEIK
B7: C5111 (protein)
chain 1: QVQLVQSGAEVKKPGASVKVSCKASGYTLTNFGFSWVRQAPGQGLEWMGWISANNGNTDYAEKFQGRVTMTTDTSTSTAYVELKSLRSDDTAVYYCARNLFYYDRGGYYRGESYFDLWGRGTLVTVSS
chain 2: QSVLTQPPSVSGAPGQRVTISCTGSNSNIGAGNDVHWYQQLPGTAPRLLIYGNTNRPSGVPARFSGSKSGTSASLAITGVQAEDEADYYCQSYDSSLSAHVVFGAGTKLTVL
B8: C5099 (protein)
chain 1: QVQLVESGGGVVQPGRSLRLSCATSGFTFRHYGMHWVRQAPGKGLEWVAVILYDGSEKYYADSVKGRFTISRDNSKSTLYLQMNSLRVEDTAVYYCAKRFGPYCGGGPCYGGGFDYWGQGTLVTVSS
chain 2: DIQMTQSPSSLSASVGDRVTITCQASQDISNYLNWYQQKPGKAPKLLIYDASNLETGVSSRFSGSGSGTDFTFTISSLQPEDIATYYCQQYGNLPITFGQGTRLEI
B9: C5114 (protein)
chain 1: QVQLVQSGGGLVQPGGSLRLSCAVSGLGVGHNYMSWVRQAPGKGLEWVSVIYSGGDTYYADSVKGRFTMSRDTSKNAVHLQMSSLRAEDTALYYCARIDFVRTAAYWGQGTLVTVSS
chain 2: DIVMTQTPLSLSVTPGQPASISCKSSQSLLQTNGRTSLYWYLQKPGQSPQLLIYEVSNRFSGVPDRFSGSGSGTDFTLKISRVEAEDTGVYYCMQGIHLPRASGQGTKVEIK
B10: C5107 (protein)
chain 1: QVQLVESGGGVVHPGRSLRLSCAASGFTFSKYGMHWIRQAPGKGLEWVAVVSYDGSDKYYADSVKGRFTVSRDNSNNTLYLQMNSLRAEDTAVYYCAKVIYSYAYVGEYYFDYWGQGTLVTVSS
chain 2: DIQMTQSPSSLSASIGDRVTFTCQASQDIRNYLNWYQQKPGKAPKLLIYDASNLEAGVPSRFSGSGSGTDFTFTISSLQPEDIATYYCQQSLSFGGGTKVEIK
B11: C5098 (protein)
chain 1: QVQLVQSGAEVKKPGASVKVSCKASGYTFTSYDISWVRQAPGQGLEWMGWISAYSGNTNYAQKLQGRVTMTTDTSTSTAYMELRSLRSDDTAVYYCARVLHYYVSGSSYYFDYWGQGTLVTVSS
chain 2: EIVMTQSPATLSVSPGERATLSCRASQSVSSNLAWYQQKPGQAPRLLIYGASTRATGIPPRFSGSGSGTEFTLTISSLQSEDFAVYYCQQCDNWPPTWTFGQGTKVEIK
B12: C5105 (protein)
chain 1: QVQLVESGGGVVQPGRSLRLSCVASGFTFRTYGMHWVRQTPGKGLEWLAVISYDGDKTHYADSVKGRFTISRDNSKNTVFLQMNSLRAEDTAVYYCAKNLGPYCSGGDCLSGYFDYWGQGILVTVSS
chain 2: DIQMTQSPSSLSASVGDRVTITCQTSQDISNYLNWYQQKPGKAPKLLIYDVSNLETGVPSRFSGSGSGTDFSLTISSLQPEDIATYYCQQYNSVPLTFGGGTKVEIK
B13: C5116 (protein)
chain 1: QLQLQESGPGLVTPSETLSLTCTVSGASISSSGYYWGWIRQPPGKGPEWIGNIYYSGNTYYKPSLKSRVTISVDTSKNQFFLNLSAVTVADTAIYFCARLRFYFDGSGYSRAFDIWGQGTMVTVSS
chain 2: QSALTQPASVSGSPGQSITISCTGTSSDVGSYNLVSWYQHHPGKAPKLMIYEVTKRPSGVSNRFSGSKSGNTASLTISGLQAEDEADYFCCSYAGSVIFGGGTKLTVL
B14: C5033 (protein)
chain 1: QVQLVQSGTEVKKPGASVKISCKTSGYTFTNYYMHWVRQAPGQGLEWMGVINPSGGGSIYAQKFQGRLTMASDTSTGTVYMELDSLRSEDTALYYCARDRGETVYYGSGLGYWGQGTLVTVSS
chain 2: DIVMTQSPDSLAVSLGERATINCKSSQSVLYRNNNKNYLAWYQQKPGQPPKLLIYWASTRESGVPDRFSGSGSGTDFTLTISSLQAEDVAVYYCQQYSSSPLTFGGGTKVEIK
B15: C5112 (protein)
chain 1: QLQLQESGPGLVKPSETLSLTCTVIGGSINSSRYYWAWIRQRPGKGLEWIGNIFYTGTTYYNPSLKSRVTVSVDKSKNQFSLKLSSVTAADTAVYYCARQLGPADFWGQGTLVTVSS
chain 2: DIQMTQSPSSLSASVGDRVTITCRASQGISNSLAWYQHKPGKAPKLLLYSSSILESGVPSRFSGSGSGTDFTLTVSSLQPEDFATYYCQQYYSNPPFTFGQGTKLEIK

What was measured:
[1] = biological target: SARS-CoV-2 Omicron BA.1 spike pseudovirus; experiment: pseudovirus neutralization IC50; higher = weaker neutralization
Protocol: (§1)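 Single-round luciferase reporter pseudovirus mixed with antibody dilutions and put on HT1080-ACE2 clone 14 cells for 48 h; signal relative to no-antibody wells, four-parameter fit.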

[2] = biological target: SARS-CoV-2 Omicron BA.4/5 spike pseudovirus; experiment: as above
Protocol: as §1

[3] = biological target: SARS-CoV-2 Wuhan-Hu-1 spike pseudovirus; experiment: as above
Protocol: as §1

[4] = biological target: SARS-CoV-2 Wuhan-Hu-1 spike receptor-binding domain; experiment: ELISA binding EC50; higher = weaker binding; ELISA of recombinant human antibody on coated antigen, from 10 µg/ml in fourfold dilutions; four-parameter fit.

Row | Binder | pseudovirus neutralization IC50 [1] | pseudovirus neutralization IC50 [2] | pseudovirus neutralization IC50 [3] | ELISA binding EC50 [4]
1 | B1 | > 1 µg/mL | > 1 µg/mL | > 1 µg/mL | 0.132 µg/mL
2 | B2 | 0.00651 µg/mL | > 1 µg/mL | 0.00189 µg/mL | 0.00376 µg/mL
3 | B3 | > 1 µg/mL | > 1 µg/mL | > 1 µg/mL | 0.00509 µg/mL
4 | B4 | > 1 µg/mL | > 1 µg/mL | > 1 µg/mL | 0.00255 µg/mL
5 | B5 | > 1 µg/mL | > 1 µg/mL | > 1 µg/mL | 0.00667 µg/mL
6 | B6 | 0.036 µg/mL | > 1 µg/mL | 0.000426 µg/mL | 0.00223 µg/mL
7 | B7 | > 1 µg/mL | > 1 µg/mL | 0.74 µg/mL | 0.00712 µg/mL
8 | B8 | 0.726 µg/mL | 0.877 µg/mL | > 1 µg/mL | 0.00362 µg/mL
9 | B9 | > 1 µg/mL | > 1 µg/mL | 0.000552 µg/mL | 0.00239 µg/mL
10 | B10 | > 1 µg/mL | > 1 µg/mL | > 1 µg/mL | 0.00379 µg/mL
11 | B11 | > 1 µg/mL | > 1 µg/mL | 0.486 µg/mL | 0.00768 µg/mL
12 | B12 | > 1 µg/mL | > 1 µg/mL | > 1 µg/mL | 0.00373 µg/mL
13 | B13 | > 1 µg/mL | > 1 µg/mL | > 1 µg/mL | 0.0133 µg/mL
14 | B14 | > 1 µg/mL | 0.63 µg/mL | 0.000852 µg/mL | 0.00386 µg/mL
15 | B15 | > 1 µg/mL | > 1 µg/mL | 0.00138 µg/mL | 0.00237 µg/mL
